From the supplement of paper PMC3334620
In all, about 33,000 sequences were measured (“E-score (-0.5 to 0.5)”: median about -0.011, highest 2% from about 0.28 on). This is one part of the list.

Target: T1, Gcr1 (UniProt P07261)
T1 sequence: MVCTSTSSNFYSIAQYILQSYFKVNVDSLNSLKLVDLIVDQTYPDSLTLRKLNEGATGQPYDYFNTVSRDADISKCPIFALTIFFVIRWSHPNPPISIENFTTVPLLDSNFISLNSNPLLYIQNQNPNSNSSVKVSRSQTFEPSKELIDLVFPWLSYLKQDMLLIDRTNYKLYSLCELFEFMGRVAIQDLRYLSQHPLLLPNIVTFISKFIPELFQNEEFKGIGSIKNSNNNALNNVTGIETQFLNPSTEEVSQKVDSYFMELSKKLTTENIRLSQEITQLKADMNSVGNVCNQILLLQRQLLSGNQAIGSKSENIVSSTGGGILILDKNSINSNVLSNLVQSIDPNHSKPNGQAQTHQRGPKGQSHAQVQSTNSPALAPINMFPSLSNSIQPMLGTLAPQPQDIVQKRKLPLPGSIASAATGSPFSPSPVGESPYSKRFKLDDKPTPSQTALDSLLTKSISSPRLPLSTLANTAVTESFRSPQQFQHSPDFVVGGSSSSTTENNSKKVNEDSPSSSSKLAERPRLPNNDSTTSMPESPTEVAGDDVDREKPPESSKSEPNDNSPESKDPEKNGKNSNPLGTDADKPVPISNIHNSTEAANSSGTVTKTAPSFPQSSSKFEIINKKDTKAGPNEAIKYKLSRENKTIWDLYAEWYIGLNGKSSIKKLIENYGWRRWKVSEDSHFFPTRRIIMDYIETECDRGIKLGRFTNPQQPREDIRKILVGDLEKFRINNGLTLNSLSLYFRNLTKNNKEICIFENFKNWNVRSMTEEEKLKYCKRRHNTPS
Assay: PBM E-score (8-mer binding enrichment) (E-score (-0.5 to 0.5)); higher = stronger / more preferred TF binding; most listed sequences are background and not binding sites
Conditions: protein concentration: 100 nM; construct: GST-full length
Procedure, shortened: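 Bound GST-tagged yeast transcription factors, applied at about 100-200 nM to double-stranded universal all-10-mer Agilent arrays, were detected with fluorescent anti-GST. Scans were normalised with masliner. A modified Wilcoxon-Mann-Whitney statistic, the E-score, was assigned to each ungapped eight-base word pooled with its reverse complement by the Universal PBM Analysis Suite.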

Sequence	PBM E-score
ACTCTGTA	-0.124
AAAGTAGC	0.18
AAGCAATC	-0.119
CATGGAAG	-0.0984
ATGACGGG	-0.143
ATTACATG	0.143
CCCTTCGA	-0.234
GAAATCGA	-0.125
TGTTCGAA	-0.0844
AACATGAA	0.0344
ACTCGTTG	0.00721
GTGGGGTA	0.286
GAGGTTGC	0.128
AGAACTCC	-0.122
TACGTTGA	-0.0995
CGCTCTCA	-0.0635
AATAGGAT	0.187
GGAATTAC	0.105
CGAGGCAC	-0.232
CCGTAATA	0.155
CTCGTTTC	-0.0255
CGAGAGAA	0.0297
AAGACAGC	-0.151
ATTCACCC	-0.0258
ATTTTAAC	0.107

Sequence	PBM E-score
TCCCGGAA	0.15
AGCTTCAA	0.0987
TAGTGTCA	0.0551
AGAATCCT	0.252
ATATAGTC	-0.0702
ACCACTGA	0.0982
CGTGTATC	0.0534
CCCCCTAC	-0.129
CCAATGAA	0.00946
ACACCCGA	-0.0231
GGAGTACC	-0.0959
ATGAAATC	0.0997
AAGATTCC	0.271
GCTGAACC	-0.139
CGCCCGGC	-0.0364
AGGGCGTG	-0.126
CCCTCGTA	0.0722
CATTGACA	-0.0443
AGTATATG	-0.00906
GGAACCGA	0.145
CTGCATGA	-0.0692
AACGACGT	0.0753
CACGAAGG	-0.0187
ATGACCAT	0.0994
AACGCCAT	0.0568

Sequence	PBM E-score
CCAACGCG	-0.0273
GAAGCGGA	0.328
AGGACTAT	0.0596
GAGCAAAC	-0.217
CTATCTTC	-0.105
GCAAACGA	0.013
ACGCGAGA	-0.0237
CATCACAG	-0.254
CCCCTAAC	0.0809
CCCGGCGA	-0.139
GACAGGTA	-0.0352
AGGGAGAG	-0.108
GGATCGCC	0.0745
AAAGACGA	0.097
GGATCAAA	-0.109
AATTTTCG	0.0174
AGGACAAG	-0.177
GGCTACAC	-0.0387
CACAGCAC	-0.068
ACAAGTAC	0.0978
CCTATAGA	0.286
CCCCGAAG	-0.107
AAGCTGAT	0.0731
GAGATCAA	-0.0647
CTCACAAG	-0.00051

Sequence	PBM E-score
CGTATATA	0.0756
CCGGGACC	0.17
AAGACCAT	-0.102
GAAGGGAC	-0.279
ATGTTTCA	0.0598
CTTTGGTC	0.0162
AACGCTAA	0.0143
CGGGATTC	0.39
ATCCATGG	-0.0489
CTAAATCC	0.274
GCTTGTAA	0.0297
AGTTCTCC	-0.0656
CCTTGGTA	0.00547
CATTGAGG	-0.00551
CACGTCGA	-0.0152
AGCACTAA	-0.0258
AGGTAGGC	-0.0702
GACCATCC	-0.0793
AAACCTCT	-0.0243
CGAGGTCC	-0.0269
ATTCCATG	0.0861
ATTACGCA	0.0726
CTATGCCC	0.0148
AAACTGGG	0.109
ACCTTGTC	-0.0797

Sequence	PBM E-score
AGAGTTCC	-0.007
AGAGTCCG	0.054
ACTCCGTG	-0.04
GATATACA	0.0603
AACAGGTC	-0.0851
TGACAGAA	-0.0387
ATGAAAAC	0.108
ACTACACA	-0.00578
CAGATGGA	0.137
CGCGATAA	0.0174
ATGCATTG	-0.212
AGGGGCCG	0.0208
CTCCTAAG	-0.0584
GGGTGATA	0.0068
CACAGACA	0.0543
CCGATAAA	0.0653
TCGCGTCA	-0.044
CCCGGAGC	-0.144
GTCCATTA	0.126
GCACTATA	-0.0261
AACGACCC	-0.158
ATGTCTGC	-0.171
CCGCCATA	-0.0635
GCACACCA	-0.0167
ATTCTTCC	-0.0172

Sequence	PBM E-score
CCCACTCC	0.0066
AAGCCACA	0.186
CATCTCCG	0.0204
GACTACTC	0.0135
CCGTGCAG	0.00756
GAAGCACC	-0.0228
CCGGACAC	-0.0607
ATCTTGCA	0.00208
GCATATCC	-0.122
CGTCCAGA	0.233
TACTACCA	-0.00989
CAAAGATA	0.0616
ATCGGATC	0.0284
AGGCGTTA	-0.113
CAATCCAA	-0.0473
ACGTGTAC	0.0045
AGTATAAT	-0.0847
CTCGCCGA	-0.135
CAGAGGCA	-0.0667
AGACGGAT	-0.0482
AAGCCGCT	0.159
ATAGAAAA	-0.0541
ACCGTATA	0.0317
ATATGTAC	0.0201
CGCGCACC	0.091

Sequence	PBM E-score
AGAGCAGA	-0.0478
GAACGCGA	0.0259
CGAATTCG	0.164
AGCGCTCA	-0.218
CCTTGTCA	-0.149
AAATGTGA	0.0864
AATGACGA	-0.076
AATATTGC	0.0005
CCTGAATA	0.15
CACACAGC	-0.138
CATAATAA	0.0747
AATTGCGT	-0.0183
AGATACTG	0.0645
ACTCTCAC	-0.112
AGCGGAAT	0.217
CGAACGCC	-0.137
GATCATTA	0.00216
GCAGTCAA	-0.0612
AGCTGGGC	0.107
CCAAATGA	0.215
CACGATAG	-0.0624
AGTTACAG	-0.0313
